Results on 29 molecules are retold here after the supplement of paper PMC12632987.

B1: GBRAP_11_2930 (protein)
chain: KKEELEKAAKLADEIAKQLTAAIESGVVDPATLAEIRKKLEELAKLVEKYGDEYEKEIAQEAKEELEKAEADPETALEHLEDARGYVIELEGLLLLRIEE
B2: GBRAP_80_6819 (protein)
chain: MEEEIERHLREIEEIDPELAEIVRRAVEIAKELGVPLEEIARLVKALAELAKLDLERARELAEELLRELEEARKRGDREYALAEVVDATSEALLEVEELE
B3: GBRAP_160_4054 (protein)
chain: GEEKEELKKMVDEAREEIKEVIDEEGAEAAAVMAAGEFGAIIMEAAELPTASDELVDALDEIRDDLVARLEANRDAPPEELKAIVDEAAEKAKKAIEEHM
B4: GBRAP_160_4596 (protein)
chain: SAEAEKLKKRLKEIVEEAKELIEGETHEQRLVIIRVMVGDILLELDESPLASDELQEKAAEIGDELVETVESNPELTEEEIKKLIEEMLEKILKAIDEEV
B5: GBRAP_160_4665 (protein)
chain: SEEVEKTLEEIRELLLEALEWARTESPENRRAILRTTVGDVVLILEENPLATDEVIDLADELGEEMAEYVLANPDLTPEEREALVEEFVEKIREAILASQ
B6: GBRAP_78_6657 (protein)
chain: KVEEALEEADRAAREALEKAKKISPELAELAAETEVLVGNALLLYEIEKASPEEILKEVEEALKAAEELAKKAKKEDEELAKLAEELIKKLEELKKLLKE
B7: GBRAP_80_6755 (protein)
chain: ALEELEENLKELIELLPEEGTRLKEVLERALAAGVPAKDVARLVKALVELAKLDLEKARELATRFIERLTEELDAGDLEGVRGEIVDAESDALLEVEELE
B8: GBRAP_53_6420 (protein)
chain: MEERLRELRERILRLAREAGRAGPAETLALVEEIGRLLAELKEAGASDEEITELAREVARELKAAGAPDSALVALANHLAALGLEDATAEVVELIVEDLE
B9: GBRAP_160_4795 (protein)
chain: SERVEKVAEIFREEGERALEMSEGESVENRVAIFDVEFGSAIMEAIDLGLLNDEEEEVAVEVRDELVAEIRANPDLTPEELRALIERKVEELRERLEELE
B10: GBRAP_160_4513 (protein)
chain: EEKLKEIFEEIEEAREEILESLDENNVEETIITAEVELGEVIMELAEDESASDEAVDAAAEVRDKLVEELKKNKNASKEELKKIIEEKTEELKKKLKKLF
B11: GBRAP_160_4435 (protein)
chain: SAKLEEAKKRIKEIAEEAAKMMEGQSAEERITVVRVMEGEIILELEELGLLTDELDELIDKSAEEIIETIKANPNISQEELKEMLEKMVEEITKLLEKEF
B12: GBRAP_137_3673 (protein)
chain: MIDAEIEIEDGLAYATLTYKGDLAEAERAAKVAEEIAAEIPGLAISTAVSDDGTLTIDVGGTLEQVMEFLKALAKRLGVTVNVTIKDEDTGETTKETIKA
B13: GBRAP_117_2589 (protein)
chain: SSLREEALKKLRELAERVREALERLKTLSEEERKKLLEELLEETKELLEELLEKLSEEEVWELIDEVAAELDTETYFRFESLVAEALARIKEEREKEELE
B14: GBRAP_83_6921 (protein)
chain: KEEITVAANSDNIEEAFDAAIDLHKNEGYEVSIDVIVKREDIPTLLKAFEKLAKAGVETKLRILLLGATEEEAEELKKKLEEIAKKYGVKIEVEVEAIEE
B15: GBRAP_80_6781 (protein)
chain: AEARIEAEIARVAAIDPELAARLREILAKLRAKGASPAVMAAFAELVAEIARALELGLTEEAREAVEEAEEAAELEDEAERLAMLAGIAGDVLLAVEEAE
B16: GBRAP_26_5495 (protein)
chain: KLEEIIKKLEEELKKILKDESEELRAAVIAEAIDLLLEADEIFEENLDDEEKREKAIEEATKELEELLKDFGLSEEKIEKVVEALRKAMEERLEALKKER
B17: GBRAP_26_5477 (protein)
chain: LEEIERKTLEEIAALLATLPDPDLAAAALAEATTIIIEAIEKMEENKDDEEKLEKIVEEAVKELEEALKELGVPEDVRKKVVEKARKGLEEAKKKILEES
B18: GBRAP_172_5004 (protein)
chain: MVTLVELDLLGLSTEEAVARAVAALRAAAAATGGPIVVAVVTDTQETADAVEAALEAEAAELGREVTVVADAYRSEADRARVLAAARAEAIDLAHELEEE
B19: GBRAP_131_3608 (protein)
chain: LKGLLATIDEDLSVEEALARVDAILDEAIARGYDAVVIRLVGQSAEVYDAAEDRVDEREEELEREHGMRVVVLPPGTTEAEAQAVLEALLLEIELEREEE
B20: GBRAP_160_4489 (protein)
chain: MEKLKEAKEEVRELVELAVEAIAEEKDDSRRQIARAFAGEIAQTLKELGVVTEEQEDEALELAEAGMEAIVAASEAGPAAMEAAAAALVAELEAFLKEAA
B21: GBRAP_160_4528 (protein)
chain: MERLEKIKKKLEETAEEAIELVKGQSAEQRATIVAMEFGSFAMELAEDEEASDEEVDIVLEEEDKLVEEILANPELTDEEIEELIEETVKRIIEKLEKLY
B22: GBRAP_18_5405 (protein)
chain: SSALFEEAWAALSEEVQDFVAEVAGDALSSEDREERIDILVDGLVELAKRHSPEEVLNALLLLLLSVTSTLEEKREVAERVIERVPELRPQAEEALRLTE
B23: GBRAP_128_3329 (protein)
chain: MNEEKIEEAKKLAEEMKKADVEEVKKLTAKLVALMGTASEEEREIIAEIFEEALKELTAEKLDAVADTLREQRPTLDPETQLYVDDLEVEALNEAEEKEE
B24: GBRAP_186_5397 (protein)
chain: ANDEEEHDKLLEELEKKNDIVIIVELDPKDTLEKKKKIMENDVEAMEALAKETGKKVAVVFSVTADKETLEELKKYAEELNKKAKAKSGVEVKLIGTETP
B25: GBRAP_184_5260 (protein)
chain: TVLEEVIEAENVEELRAKLAAVAARALASGADVLLHLEVEELTDEMIDALFDQIAALKAAGYTGRITVGIDADMTEEQIDYAIEKADAAGVNLTVAIPEE
B26: GBRAP_42_5733 (protein)
chain: MTAVTLEVVSHTREEAERNLAEAKKITEEYLAKGEVIVTYEIAAPEEAADLAAEAEARAKEIRATADKESEWVVVAGPGEDLREAAEIAVDIAKMELEEE
B27: GBRAP_184_5198 (protein)
chain: KVTEVELEAENLEEVKKKMEELREIAKREKADLVVILKLKEVTKEMVETIMSTMKEIKEEGLSPNITLEIVGKMSEENIDLAIKLADEAGVNLVLALDEE
B28: GBRAP_52_6158 (protein)
chain: AAARAEALADAILAAVRAGDEARLRALLEEAARTLSDEELSALLDHIAAAVAGLSPADAEAVVDAAIRFEDLAVAAGHDEELLSYQLARVAAAAYAQLQA
B29: GBRAP_43_5790 (protein)
chain: MKEIVEGALDFARTALETPEITDETKARIVVDAIDFAADEGVLTKEQLRELLELLERSVSLETALEALERILKRLKELGAPQELLDTVEEALERVRKELA

Over roughly 4,500 sequences, “median log2 fold change of GCK-ALFA target abundance (FLAG IP / Myc IP barcode read proportion)” has its median near 0.078; the lowest 2% begin near -0.6. The list shows a part of the results.

Sequence of GABARAP, O95166 (O95166 whole entry, the tested form may be a part): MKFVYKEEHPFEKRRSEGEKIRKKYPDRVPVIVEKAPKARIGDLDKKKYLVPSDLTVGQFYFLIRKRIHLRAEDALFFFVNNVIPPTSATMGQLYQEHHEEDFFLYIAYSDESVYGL

The target in this assay is GABARAP, O95166. As to the kind of experiment: median log2 fold change of GCK-ALFA target abundance (FLAG IP / Myc IP barcode read proportion) (log2 ratio); each designed protein is fused to an ALFA-tag nanobody in HEK293 cells to bring the named protein to FLAG-tagged glucokinase (GCK); Myc marks an untargeted standard; higher = target protein stabilised (more abundant). The settings on record: target protein: 3xFLAG-MCP-GCK-ALFA reporter; HEK293 landing pad (RPLP). An outline of the steps:
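HEK293 landing-pad cells received a recombined binder library fused to the ALFA nanobody and were induced with 2 μg mL^−1 doxycycline, then transfected with a plasmid encoding a FLAG-tagged target and a Myc-tagged standard. Lysates were collected after 48 h for anti-FLAG and anti-Myc immunoprecipitation, and the circular RNA barcodes were reverse transcribed, amplified and sequenced. Target abundance for each binder is the median log2 ratio of FLAG to Myc barcode read proportions. Barcodes had to reach a proportion of at least 10^−7 in both replicates, each binder needed at least 3 barcodes per replicate, a pseudocount of 10^−6 was applied, and the two replicates were pooled.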
As to B1, the “median log2 fold change” value worked out at 0.208. The result for B2 reads 0.139; that for B3, -0.488; that for B4, -0.381. On to B5, for which the “median log2 fold change” value was -0.362.

With B6, the “median log2 fold change” value came out at 0.267. The result for B7 reads -0.286. As for B8, the “median log2 fold change” value is 0.189. Turning to B9, the “median log2 fold change” value was -0.0177. The result for B10 reads -0.245. The result for B11 reads 0.00808; that for B12, -0.148; that for B13, 0.0984. The result for B14 reads 0.136; that for B15, 0.0599. On to B16, for which the “median log2 fold change” value came out at 0.242. Turning to B17, the “median log2 fold change” value was determined as 0.2.

For the molecule B18, the “median log2 fold change” value was 0.163. The result for B19 reads -0.193; that for B20, 0.167.

As for B21, the “median log2 fold change” value is -0.278. Turning to B22, the “median log2 fold change” value was -0.298.

Take B23: the “median log2 fold change” value is -0.0881.

B24: the “median log2 fold change” value is 0.165. For B25 the value was 0.0342; for B26, 0.222. The result for B27 reads 0.0431. For B28 the value was -0.0469. For the molecule B29, the “median log2 fold change” value was -0.0375.
